# Source: the supplement of paper PMC8728848
# Some of the results follow.
# B1: PX15618B-bfa-464-25-464 (Bacteroides fragilis) (protein)
# chain: DQEPPLYVNENDIFTSPTRIEATLNGLYAAIKNTGTKSLMGGKSYLVFDNRGDDVINISNNLVTLFNTYNMNVGITDAENADTWTYAYLAINKVNTFLQSLEGAREVAGENYDRYVQEAKFVRALAYYYLNNLYPTPYSVNPDAKSVPLRLTAEAGTENNNMPRSTVKQIYEHILSDLENISALDTEVNTYTGVTHATQAAANMLKMRVYMAMNEWDKAITAGELVTGYSLPEDVTLIYKAPYFSQESIFSLPMADTNIPNTQQSLAEYYYDGKIMLIDTKSGIMSKPDYSLATDKRIIAFKGEKDLLMKFTDAKTKLQWVPIFRYAETLLDLAECYANKAGGEATAKSLLKQVRGRSVDAATDPLNIDNLSGDALKEAIYNEKRLEFIGEGIRGIDIMRRGEHFIKVGENETINVGPSDEKYTWPIPQVELLLNKDINK
# Experiments:
# [1] = target: Neu5Gc(a2-8)Neu5Gc(a2-6)Gal(b1-4)GlcNAc; test: glycan array binding signal (z-score within array); higher = stronger binding; conditions: glycan notation: IUPAC condensed, linker removed
# Summary of the method: (§1)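 The Consortium for Functional Glycomics database supplied 3228 glycan arrays, of which those lacking an available protein sequence were dropped. The binding signal, a within-array Z-score, was averaged across arrays of the same protein sequence and across linkers. Negative scores can be read as non-binding.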
# [2] = target: Neu5Gc(b2-6)Gal(b1-4)GlcNAc; test: as above; conditions: glycan notation: IUPAC condensed, linker removed
# Summary of the method: as §1
binder,measurement,setting,value
B1,glycan array binding signal (z-score),[1],-0.309
same,glycan array binding signal (z-score),[2],-0.048
